Experimental data from patent US20210261667A1 (SHANGHAI NOVAMAB BIOPHARMACEUTICALS, published 2021).

What was measured:
[1] = biological target: T1, hPD-L1(ECD)-Fc (human, UniProt Q9NZQ7 part only); assay: BLI (ForteBio Octet), Protein A probe
T1 construct: extracellular domain; also called antigen protein hPD-L1(ECD)-Fc; not shown: Fc

[2] = biological target: T2, PD-L1 expressed on the cell surface (HEK293F transiently transfected; A375/PD-L1 stably transfected cells) (UniProt Q9NZQ7); assay: flow cytometry, competition with hPD-1(ECD)-Fc-Biotin on A375/PD-L1 cells
T2 construct: whole, on cells; also called PD-L1 stably transfected cells A375

Sequence of hPD-L1(ECD)-Fc (Q9NZQ7 19-238): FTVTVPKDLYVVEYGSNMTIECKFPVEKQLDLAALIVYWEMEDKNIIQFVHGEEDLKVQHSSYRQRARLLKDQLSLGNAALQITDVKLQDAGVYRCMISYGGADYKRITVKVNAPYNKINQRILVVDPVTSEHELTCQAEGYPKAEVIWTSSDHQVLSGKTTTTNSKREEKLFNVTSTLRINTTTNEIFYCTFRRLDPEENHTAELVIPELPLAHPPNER

Kd [1]: 7.03 nM
IC50 [2]: 0.65 µg/mL
B1: humanized tetravalent anti-PD-L1 single-domain antibody (Fc fusion)
chain: QVQLQESGGGLVQPGGSLRLSCTASGYNLSPSCMGWFRQAPGKGLEGVAFTDADGSTRYADSVKARFTISRDNSKNTLYLQMNSLRAEDTAVYYCAADFFSYCSVVFRASARDKYRGQGTLVTVSSGGGSGGGSQVQLQESGGGLVQPGGSLRLSCTASGYNLSPSCMGWFRQAPGKGLEGVAFTDADGSTRYADSVKARFTISRDNSKNTLYLQMNSLRAEDTAVYYCAADFFSYCSVVFRASARDKYRGQGTLVTVSS[gap - human IgG1 Fc with changes]
notes: two chains joined by disulfide bonds between the Fc fragments; also called humanized tetravalent PD-L1 single-domain antibody; humanized tetravalent single-domain antibody
